Reference: PubChem BioAssay AID1461 (National Center for Advancing Translational Sciences (NCATS), 2008)
The whole screen tested about 220,000 compounds, of which about 2,300 (1%) were called active. Inconclusive means that the source gave no clear call. Such entries were picked first, then a sample of the others. The call rests on the fitted dose curve; in most records, active means well fitted inhibition curve with a large enough effect; inconclusive means small, poorly fitted or top-dose-only effect, or effect the other way; inactive means no such curve, though single readings can be large or run the other way. No potency is given beside an inconclusive call; the fits are too rough.

biological target: Neuropeptide S receptor (Homo sapiens) (UniProt Q6W5P4); assay: qHTS Assay for Antagonists of the Neuropeptide S Receptor: cAMP Signal Transduction; conditions: CHO-NPSR cells, cAMP TR-FRET, antagonist mode; series mostly up to 38.3 µM; further: nearly all actives have a fitted effect of over 50% in size
Potency means the concentration at half of the fitted maximal effect; tags describe the fitted curve by direction and shape.

Sequence of UniProt Q6W5P4 (Q6W5P4 whole entry, looked up): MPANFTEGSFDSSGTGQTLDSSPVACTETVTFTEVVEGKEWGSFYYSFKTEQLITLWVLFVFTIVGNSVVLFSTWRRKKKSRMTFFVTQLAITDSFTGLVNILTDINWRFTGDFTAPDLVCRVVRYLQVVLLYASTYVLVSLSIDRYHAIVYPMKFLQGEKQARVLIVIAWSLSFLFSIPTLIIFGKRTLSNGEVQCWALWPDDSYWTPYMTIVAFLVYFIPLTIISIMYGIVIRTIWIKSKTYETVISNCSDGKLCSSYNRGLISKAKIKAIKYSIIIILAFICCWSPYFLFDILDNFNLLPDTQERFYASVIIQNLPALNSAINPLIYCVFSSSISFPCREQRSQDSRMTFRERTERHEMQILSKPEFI

| Structure (SMILES) | Potency |
| --- | --- |
| CC(OC(=O)c1cc2sccc2n1C)C(=O)NCc1cccs1 (stereo not drawn) | inconclusive [inhibitor, single point] |
| CCOc1ccccc1-n1c(CN2CCN(C(=O)c3ccco3)CC2)nc2ccccc2c1=O | inconclusive [inhibitor, partial curve] |
| Cc1ccc(CSCc2nnc(SCC(=O)N3CCN(c4ccccc4)CC3)n2C)cc1 | inactive |
| Cc1nc(N2CCC(C)CC2)c2nnn(Cc3ccccc3)c2n1 | inconclusive [inhibitor, single point] |
| Cc1cc(C)nc(NS(=O)(=O)c2ccc(NC(=O)CSc3nc4ccccc4[nH]3)cc2)n1 | inactive |
| Cc1cccc2cc3c(nc12)SC(=NCC1CCCO1)N(Cc1ccco1)C3 (stereo not drawn) | active: 10 µM |
| Nc1c(S(=O)(=O)c2cccs2)c2nc3ccccc3nc2n1/N=C/c1cccc(O)c1 | active: 7.94 µM |
| Cc1cc(C)c2c(=O)n(CC(=O)N3CCC(Cc4ccccc4)CC3)sc2n1 | inactive |
| O=C(NCC1COc2ccccc2O1)c1cn(Cc2ccc(F)cc2)nn1 (stereo not drawn) | inactive |
| O=C(CN(c1cccc(C(F)(F)F)c1)S(=O)(=O)c1ccc(Cl)c([N+](=O)[O-])c1)NCc1ccc(F)cc1 | inconclusive [inhibitor, single point] |
| COc1ccc(S(=O)(=O)NCCC(=O)NCc2ccccc2)cc1 | inactive |
| Cc1cc([N+](=O)[O-])ccc1NC(=S)NC(=O)C(c1ccccc1)c1ccccc1 | inconclusive [inhibitor, single point] |
| CCOC(=O)c1c(Nc2nc(C)c(C(=O)NC)s2)sc(C)c1C | inactive |
| N#Cc1nc(COc2ccccc2Cl)oc1NCc1cccnc1 | inconclusive [inhibitor, single point] |
| O=C(N/N=C/C(Br)=C/c1ccccc1)c1n[nH]c2c1CCC2 | inconclusive [activator, full curve, poor fit] |
| Cc1ccc(C2=NNC(=O)C(c3c[nH]c4ccccc34)C2)cc1 (stereo not drawn) | inconclusive [inhibitor, single point] |
| COc1cccc2cc(C(=O)Nc3ccc(F)cc3)c(=Nc3ccc(C(=O)O)cc3)oc12 | inactive |
| Cc1cccc(-n2c(C)n[nH]c2=S)c1 | inactive |
| COc1ccc(OC)c(-n2c(SCC(=O)NCc3ccco3)nnc2-c2c[nH]c3ccccc23)c1 | inconclusive [inhibitor, single point] |
| Cn1c(COc2ccc(Cl)cc2)nnc1SCc1ncc(-c2ccccc2)o1 | inconclusive [inhibitor, full curve, poor fit] |
| C/C(=N\NC(=O)c1ccccc1O)C1C(=O)c2ccccc2C1=O | inconclusive [inhibitor, single point] |
| Cc1ccc(NC(=O)CNc2ccc(Cl)cc2F)cc1 | inconclusive [inhibitor, single point] |
| CCc1nn(CCCN2CCN(c3cccc(Cl)c3)CC2)c(=O)n1CCOc1ccccc1 | inconclusive [inhibitor, single point] |
| CCOC(=O)C1(CCOc2ccccc2)CCN(Cc2cccc3nonc23)CC1 | inconclusive [activator, partial curve] |
| COCCN=c1scc(-c2cc(OC)ccc2OC)n1/N=C/c1c[nH]c2ccccc12 | inactive |

| Structure (SMILES) | Potency |
| --- | --- |
| C=CCN1CCN(C(c2cc(OC)ccc2OC)c2nnnn2CC2CCCO2)CC1 (stereo not drawn) | inactive |
| CCOc1cc(-c2cn(S(=O)(=O)c3cccc4nsnc34)nc2N)cc(OCC)c1OCC | inconclusive [inhibitor, single point] |
| COC(=O)c1sc(NC(=O)c2ccc(Cn3cc(Cl)cn3)o2)c(C#N)c1C | inconclusive [inhibitor, single point] |
| O=C(CCNc1cccc(F)c1)c1cccc([N+](=O)[O-])c1 | inactive |
| O=C(O)CCn1cc(C2CC(c3ccccc3)=NN2c2ccccc2)c(-c2ccccc2)n1 (stereo not drawn) | inconclusive [inhibitor, single point] |
| CC(C)CCSc1ncnc2c1oc1nc3c(cc12)COC(C)(C)C3 | inconclusive [activator, single point] |
| CCN(CC)S(=O)(=O)c1ccc(NC2c3ccccc3C(=O)N2c2ccc(C)cn2)cc1 (stereo not drawn) | inactive |
| Cc1cc(OCCN2CCCC2)ccc1[N+](=O)[O-] | inactive |
| CN(C)c1ccc(NC(=O)c2cccc(C(=O)Nc3ccc(N(C)C)cc3)n2)cc1 | inactive |
| COc1cc(/C=C2\SC(=O)N(c3ccccc3Cl)C2=O)cc([N+](=O)[O-])c1O | inconclusive [activator, partial curve] |
| Cc1ccc(CCC(=O)Nc2ncc(Cc3cccc(Cl)c3Cl)s2)o1 | inconclusive [activator, partial curve] |
| COc1cccc(OC)c1NC(=O)CN1CCC(NC(=O)c2cccc(F)c2)CC1 | inactive |
| O=C(NC(=S)Nc1cccc(F)c1)c1cccc([N+](=O)[O-])c1 | inactive |
| COc1ccc(-c2[nH]ncc2/C=C(/C#N)C(=O)NC2CCCCC2)cc1 | inconclusive [inhibitor, partial curve] |
| CSc1ccccc1-c1nnc(-c2ccc(Cl)cc2)o1 | inconclusive [inhibitor, single point] |
| CC(C)CN(C#N)c1nc(N2CCOCC2)nc(N2CCOCC2)n1 | inconclusive [inhibitor, single point] |
| CN1CCC(=NNC(=O)c2cc(-c3ccc(Cl)cc3)n[nH]2)CC1 | inactive |
| O=C(Nc1cnccn1)c1cccc(C(F)(F)F)c1 | inconclusive [inhibitor, single point] |
| CCOC(=O)c1c(NC(=S)NC)sc2c1CC(C)(C)SC2 | inactive |
| CCCCOP(=O)(c1ccc(N(C)C)cc1)C(O)c1ccccc1F (stereo not drawn) | inconclusive [inhibitor, partial curve] |
| CCOc1ccc(NC(=O)c2ccc3c(c2)N(Cc2ccc(F)cc2)C(=O)CS3=O)cc1 (stereo not drawn) | inconclusive [inhibitor, partial curve, poor fit] |
| CC1(C)CC(=O)c2sc(NC(=O)c3cccs3)nc2C1 | inconclusive [inhibitor, single point] |
| COc1ccc(-c2cc(C(F)(F)F)nc(S(C)(=O)=O)n2)cc1OC | inconclusive [inhibitor, partial curve] |
| O=C(c1ccco1)N1CCN(S(=O)(=O)c2ccc(Br)s2)CC1 | inactive |
| Cc1ccccc1/[N+]([O-])=C/c1ccncc1 | inconclusive [inhibitor, single point] |

| Structure (SMILES) | Potency |
| --- | --- |
| CSC1CCCCC1(O)CSc1nc2c(cc1C#N)CCCC2 (stereo not drawn) | inconclusive [inhibitor, partial curve] |
| O=C(NCc1cccnc1)c1c(F)c(F)c(F)c(F)c1F | inconclusive [inhibitor, single point] |
| COc1ccc(NC(=O)COC(=O)c2cc(SC)ccc2Cl)c(OC)c1 | inconclusive [inhibitor, single point] |
| CC(C)SC1=NC(C)(C)C=C(/C=C/c2c(Cl)cccc2Cl)N1 | inconclusive [inhibitor, single point] |
| COc1cccc(-c2cc(C(=O)N3CCCCCC3)no2)c1 | inconclusive [inhibitor, partial curve] |
| CC(=O)C1=C(C)NC(SCC(=O)c2ccccc2)=C(C#N)C1c1ccco1 (stereo not drawn) | inconclusive [inhibitor, single point] |
| COCCNC(=O)CN(C(=O)Cn1nnc2ccccc21)c1ccc(C)c(F)c1 | inactive |
| CCOC(=O)C(C)Oc1cccc2c(=O)n(CC(=O)NCc3ccc4c(c3)OCO4)ccc12 (stereo not drawn) | inconclusive [activator, partial curve] |
| Fc1ccc(C2CCCN2Cc2nc(CC3CC3)no2)cc1 (stereo not drawn) | inactive |
| Cc1cccc2cc(C#N)c(SCC(=O)N3CCC(C)CC3)nc12 | inconclusive [inhibitor, single point] |
| O=C(N/N=C/c1cc(O)ccc1[N+](=O)[O-])c1ccc2c(c1)OCCO2 | inconclusive [inhibitor, single point] |
| c1ccc2c(c1)Nc1cc3ccccc3cc1S2 | inconclusive [activator, partial curve] |
| Cc1ccc(NC(=S)NCCc2ccccc2)nc1 | inactive |
| COc1ccc(OC)c(/C=N\NC(=O)CSc2nnc(CCCc3ccc(OC)c(C)c3)o2)c1 | inconclusive [inhibitor, partial curve] |
| O=C(Nc1ccccc1)c1cc2ccc3ccccc3c2s1 | inconclusive [inhibitor, single point] |
| Cc1cc(C)c2nc(SCC(=O)NCC3CCCO3)c(C#N)cc2c1 (stereo not drawn) | inconclusive [inhibitor, single point] |
| CCOc1ccc(S(=O)(=O)NCc2cccnc2)cc1C | inactive |
| O=C(Nc1ccccc1)c1cnc2ccccc2n1 | inactive |
| O=C(c1ccc(Cl)s1)N1CCN(c2ncccn2)CC1 | inactive |
| Cc1oc(-c2ccc(-c3ccccc3)cc2)nc1CN1CCN(CC(=O)N(C)C)CC1 | inactive |
| Cc1cc(C)nc(/N=C(\N)Nc2ccc(OCc3ccccc3)cc2)n1 | inconclusive [activator, single point] |
| CCOC(=O)CSc1nc(N)c(C#N)c(-c2ccc(OC)cc2)c1C#N | inconclusive [activator, single point] |
| Cc1c(/C=N\NC(=O)C2(C)CC2(Cl)Cl)cnn1C (stereo not drawn) | inactive |
